Test results taken from paper PMC12136788.
Some of the results follow.

T1: UNK ZnF1-3 (human, UniProt Q9C0B0 31-174)
T1 sequence: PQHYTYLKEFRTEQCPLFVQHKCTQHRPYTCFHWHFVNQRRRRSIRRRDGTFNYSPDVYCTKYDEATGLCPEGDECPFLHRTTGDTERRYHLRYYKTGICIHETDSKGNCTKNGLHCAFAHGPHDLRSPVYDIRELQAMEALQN

B1: chr1:89340274:89340275:+_ENSMUSG00000048000_ENSMUST00000174671|mus_hu|FALSE|FALSE (ssRNA)
RNA: GGGAGUUCUACAGUCCGACGAUCUUUGGCACGGCGCUCAAGGAACUGCUUGGCAAACUCCUUGGCCUCAGAAGUAUCUCCUAAAUAGGCCCUGAUAUAAUCAUGGACCUCAUAAGGAGAUUCUACUUCUUUCAGGAAAGAAACCAACAGAGGAUUGAGCAUCA
B2: chr12:39763582:39763583:-_ENSG00000139116_ENST00000544797|hu_mus|hu_hu_hu_mus_False|1_78 (ssRNA)
RNA: GGGAGUUCUACAGUCCGACGAUCCUCUAGGAACUGGGCAUUCACUUUGAAUUCAGGAGCAGGAAGCCCGUUUUUAAUCGCUGAGGUCUUUUUCUCAUCAAUACUCUUGAACAGGUGUCUAACAGCACGAGAGAUGAUACCCAGCAACAGAGGAUUGAGCAUCA
B3: chr19:47151266:47151267:-_ENSG00000197380_ENST00000391916|hu_mus|FALSE|FALSE (ssRNA)
RNA: GGGAGUUCUACAGUCCGACGAUCACUCUGUAGGCAUAACCUGAGUCAGACAGUCUCUGACUUGGGGGCCCCAGGGGGUAUCCUAAGGGUCCAGGGACAUGGAGGGGGCACUUUGUGAAUGAGAAGGGGACCCUAUCUGGGCAACAACAGAGGAUUGAGCAUCA
B4: chr2:109738910:109738911:+_ENSMUSG00000027162_ENSMUST00000028583|mus_mus|FALSE|FALSE (ssRNA)
RNA: GGGAGUUCUACAGUCCGACGAUCUCUGAAAACUGCAGUAAUCUUGUAAGACUCACAAUGCUCACACCAUGCAGAAAAACAUACACACUUCCAUUCUUCCUGAAGGAAUGUUACAAAAUGCCCAUUUUUUAAAAAUAAAGGUAACAACAGAGGAUUGAGCAUCA
B5: 60974930_60976415_833_CDS_ENSMUSG00000042506_ENSMUST00000041683|mouse|control|control (ssRNA)
RNA: GGGAGUUCUACAGUCCGACGAUCUGGAAUGUGUGGGGAGCGGUGCCCUGAGUAAAACUCCUGGAAGAGAGAGGACAUCUCACAGACCAAGCAGGAGCUGGGGCUCUGCAUCUCACAGCGGUGCCUAUCCGACAGAAAGAAGUCCAACAGAGGAUUGAGCAUCA
B6: chr6:134305517:134305518:+_ENSG00000028839_ENST00000367871|hu_hu|motif|central (ssRNA)
RNA: GGGAGUUCUACAGUCCGACGAUCGUUACACACUGCCAGAACGUUAACAACCUUAAAAUCUGUAAAUAUUACCUGAAAACCGGGUUUCUGCAGACUACGGGCUAAGCGUCUGGCACCAAAUUUAGCUUCUUCUUCACUUGUUGCCAACAGAGGAUUGAGCAUCA
B7: chr9:14812383:14812384:-_ENSMUSG00000031934_ENSMUST00000164273|mus_mus|mus_mus_mus_hu_True|68_78 (ssRNA)
RNA: GGGAGUUCUACAGUCCGACGAUCAUAGCCCAGGUAGAUACACGCUAACAGUAUAAUCACAAAUGUCACCAGCCGGCAGCUAAUGUACUUGAUGAUUAAAUUAUUAGAAUUUUUCUUUGUCUUCAAGUACUGCUCCACAAUUGGCAACAGAGGAUUGAGCAUCA
B8: chr6:53387275:53387276:-_ENSG00000001084_ENST00000229416|hu_hu|FALSE|FALSE (ssRNA)
RNA: GGGAGUUCUACAGUCCGACGAUCUGUCCUUUCCCCCUUCUCUUGCAGAGUUUCAAGAACUUUCUCCCCAGACAGGACCAACCGGACUUUUUUAUUUUCAUGAUCAAAAGAUACCAACAUGUAUUCCACCUCAUCGCCCCACUUCAACAGAGGAUUGAGCAUCA
B9: chr3:52014989:52014990:+_ENSG00000248487_ENST00000273596|hu_mus|FALSE|FALSE (ssRNA)
RNA: GGGAGUUCUACAGUCCGACGAUCAGGUGAGUCCACUCAAGGCAAAUGGUCAAGGAAGGCAAGAAGGGCGAGGUGGAAGGCUUCUGGCUUGUGGAGGUAGCAGGCAUGACCUGCAUCAUGCAGCUUCACCACAGAGUGGUUGGGCAACAGAGGAUUGAGCAUCA
B10: chr10:88199856:88199857:+_ENSMUSG00000060904_ENSMUST00000116234|mus_hu|FALSE|FALSE (ssRNA)
RNA: GGGAGUUCUACAGUCCGACGAUCUGCAUCUGUGUUUGAAUAGUAACAUCUCCAGUAUGGCCUGAUACUUGUCUGUCCUCCUAAAUCCCAGACUUGGAAUUUAAGGUUUUUGUACGUCACCGUCUCUACAUUAAAUCCAAUGGUCAACAGAGGAUUGAGCAUCA
B11: chr2:183853844:183853845:-_ENSG00000061676_ENST00000360982|hu_mus|motif|central (ssRNA)
RNA: GGGAGUUCUACAGUCCGACGAUCGUGAAUGUGGAAAACUUCAUCCCGAAAGAGAGAGAGGCAAGAGCUACUCUGAAGAGCGGGCUUCCAAAGGUUCAGUGCGGUAGCCUCCGUAUUUAGCAUCCCAUGGCACAGAAUAAAGCCCAACAGAGGAUUGAGCAUCA
B12: chr21:34922442:34922443:+_ENSG00000159140_ENST00000381679|hu_mus|motif|central (ssRNA)
RNA: GGGAGUUCUACAGUCCGACGAUCCUCAGUAGGUGUCUCUGACACUAUCGUGAGGGUUUCUGAUGGCUCAACCACUUUUGCGGUGGGAAGCUCUACCAGCGUGGUCUUUGACGUCUCUGGAGGCAUAGUCUCCAAAGAUUUCAGCAACAGAGGAUUGAGCAUCA
B13: chr11:116399779:116399780:-_ENSMUSG00000020802_ENSMUST00000082152|mus_mus|FALSE|FALSE (ssRNA)
RNA: GGGAGUUCUACAGUCCGACGAUCAGGGCUGCAGCCUCUCCUGGUGUCCUAUCCUCUCUUAGAGAGUAAGUUCAAUAGGCCUAAGGGCUAUAACGCACUGGCAGGCCAGAGCCAGCCACAGCAGCCACAGCUCCGAGAUGGAGGCAACAGAGGAUUGAGCAUCA
B14: chr3:103141349:103141350:+_ENSMUSG00000033014_ENSMUST00000106860|mus_mus|motif|central (ssRNA)
RNA: GGGAGUUCUACAGUCCGACGAUCACUUGUAGGCUGAGGGGGUAGAUGACUGCCUGAGAUAUAUCUACUCAGUAGAUUAUCGGAACGGCUUGAGCCAGCAUCUUCCAACUGUAUAGGUGGGAUAUCUGGCAACGAUGGAAGGUUCAACAGAGGAUUGAGCAUCA
B15: chr4:76721835:76721836:+_ENSG00000138768_ENST00000264904|hu_mus|hu_hu_hu_mus_True|88_108 (ssRNA)
RNA: GGGAGUUCUACAGUCCGACGAUCGUUGGCUGGGGUUUUCUGAGACGUCUGGAAUACUAACUCAUGUUUGCUAAUAAAUCCUAGUUUCUCUAUGAAAUUCUCUUUGCCAAUCCUCUUCUCUAUUAGUUGCUUUAGUUUCUCUUUCAACAGAGGAUUGAGCAUCA
B16: 46230419_46230624_985_CDS_ENSG00000189079_ENST00000334344|human|control|control (ssRNA)
RNA: GGGAGUUCUACAGUCCGACGAUCCACUGCAAUCUGAAGUACCCGCUGUCCUUCAAUAUCGUUAAUGCCCAGCUUUCGAGGUGGAUGAAAUAAAGACUCCCAAAUCCAUUCUCCUGAUGUACCUUCAUGAGACUUGUUUCUGUCCAACAGAGGAUUGAGCAUCA
B17: chr17:37360870:37360871:+_ENSG00000108298_ENST00000225430|hu_hu|FALSE|FALSE (ssRNA)
RNA: GGGAGUUCUACAGUCCGACGAUCCAGUAUGUACAGACAAAGUGGGAGGUUUUAUUUCUUGGUCUCUUCCUCCUUGGAUAAAGUCUUGAUGAUCUCCUCCUUCUUGGCCUGGAGGCGCUCUUCACGGCGCUUGCGUGCUUCCUUCAACAGAGGAUUGAGCAUCA
B18: chr10:71921676:71921677:-_ENSG00000079332_ENST00000373241|hu_hu|FALSE|FALSE (ssRNA)
RNA: GGGAGUUCUACAGUCCGACGAUCCACACUGCUGAAGCCAUUGUAGAUCCACUCAAAGAUGAAAGACAUUAUUAAUGCUUACUACGGCCUGAGGGGCUCCUCCGGCAAAACAGCGGCUGGCUCGGACCCUCCCUCAGAGCACACCAACAGAGGAUUGAGCAUCA
B19: chr7:135612270:135612271:-_ENSG00000105887_ENST00000393085|hu_mus|hu_hu_hu_mus_False|38_58 (ssRNA)
RNA: GGGAGUUCUACAGUCCGACGAUCGUUUUUUUCUGAGAUGUUAAAUAGUACUUCAGUGGAAAACAAAACUUAACCUUUCGCUAAUGCGUGUUGUACCAGAAAGCAAAAUUUUAGCUUCAUUUAUUCAAAAAUAUUAACAUUAAGCAACAGAGGAUUGAGCAUCA
B20: chr14:45963330:45963331:+_ENSMUSG00000021832_ENSMUST00000022380|perfect_dup|FALSE|FALSE (ssRNA)
RNA: GGGAGUUCUACAGUCCGACGAUCGAUUUUCAAUAUAUCUAAUCUUGCUUGUUCAUUUGGUAAAUCGAUAUGUAUUUUUCUAUCUAAUCUUCCUGGGCGCAGCAAAGCAGGAUCCAGUGUAUCUGGUCUGUUUGUAGCCAUGAUCAACAGAGGAUUGAGCAUCA
B21: 136597645_136599121_1188_CDS_ENSG00000029363_ENST00000527536|human|control|control (ssRNA)
RNA: GGGAGUUCUACAGUCCGACGAUCCCUUUUUAAGAACUUCCCAGUCUUUGCAGUUUCCUGAUCUCCACCAUCAGGAUAAAACGAGGAACGGCCCCUAGACUCAUCUCUUGGAGCAUUCUGUGGUGCGAUUGUCUUUGCAGGACUCAACAGAGGAUUGAGCAUCA
B22: chr9:109012998:109012999:+_ENSMUSG00000053646_ENSMUST00000072093|mus_mus|FALSE|FALSE (ssRNA)
RNA: GGGAGUUCUACAGUCCGACGAUCGUUGCCCAUCUGUACCGUGAACUCAGGCAAAGCAUCUGGAGCCUCUCGGAGGGCAUGGGGAUGUGGCAGGGGCUGCUCCACAGGGGGCUCACAGUACAGGUGGUUCCGGGUCAGUGUCUUCAACAGAGGAUUGAGCAUCA

biological target: T1, UNK ZnF1-3; experiment: nsRBNS (natural sequence RNA bind-n-seq); RBNS binding buffer (assumed for nsRBNS): 25 mM Tris pH 7.5, 150 mM KCl, 3 mM MgCl2, 0.01% Triton X-100, 500 ug/ml BSA, 20 U/ml SUPERase-In, 4 C; UNK is unkempt and MSI1 is Musashi-1; names of the RNAs are library labels; protein concentration not given here; high values mean tight binding

Binder | binding signal
B1 | 0.658 enrichment R
B2 | 1.18 enrichment R
B3 | 1.16 enrichment R
B4 | 1.31 enrichment R
B5 | 0.829 enrichment R
B6 | 0.735 enrichment R
B7 | 1.19 enrichment R
B8 | 1.41 enrichment R
B9 | 1.89 enrichment R
B10 | 0.714 enrichment R
B11 | 1.85 enrichment R
B12 | 0.351 enrichment R
B13 | 0.806 enrichment R
B14 | 1.02 enrichment R
B15 | 0.428 enrichment R
B16 | 0.859 enrichment R
B17 | 0.649 enrichment R
B18 | 1.19 enrichment R
B19 | 0.573 enrichment R
B20 | 0.578 enrichment R
B21 | 0.776 enrichment R
B22 | 0.77 enrichment R
